Each structure is given as a SMILES string. Screen size: about 45,000 compounds; about 200 (0.44%) were called active. Another 7% or so got no clear call; they are omitted. The call rests on the fitted dose curve; in most records, active means well fitted activation curve with a large enough effect; inconclusive means small, poorly fitted or top-dose-only effect; inactive means no such curve, though single readings can be large or run the other way. This is one part of the list.

This test is described as follows: qHTS of TDP-43 Inhibitors: NCGC Sytravon Library Screen. Further: 0% is about no effect; nearly all actives have a fitted effect of over 55% in size. As to conditions: yeast TDP-43 toxicity rescue, BacTiter-Glo growth, 24 h; series mostly up to 46.1 µM; growth rescue (activation): at the top concentration. An outline of the steps: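 TDP-43-expressing yeast, pregrown in raffinose, seeded at OD600 0.02 in galactose medium with compound for 24 hr at 30 deg C. Growth read by BacTiter-Glo luminescence, so rescue of toxicity appears as activation.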
A general note: Quantitative high-throughput screening tests each substance at several concentrations.
Turning to `O=C(CC1SC(=NCC2CCCO2)NC1=O)Nc1cccc2ccccc12` (stereo not drawn), the “growth rescue (activation)” value was inactive: -3.92%. For `Cc1cccn2c(=O)c3cc(C(=O)N4CCN(C(=O)c5ccco5)CC4)n(C)c3nc12` the value was inactive: 19.4%; for `Cc1cccn2c(=O)c(/C=C(\C#N)C(N)=O)c(N3CCN(Cc4ccc5c(c4)OCO5)CC3)nc12`, inactive: -23.8%; for `C=CCOc1ccc(C=Nc2ccc(C)c(Cl)c2)c(O)c1`, inactive: 0.811%. For `CC1(C)CC(=O)C(C=NCCN2CCN(CC(=O)Nc3ccc(Cl)cc3)CC2)=C(O)C1` the value was inactive: 5.71%; for `CCCCNC(=S)N1CCN(CC)CC1`, inactive: 2.35%. For the compound `COc1ccc(C)cc1NC(=O)C(Sc1nnc(Nc2cc(C)ccc2OC)s1)c1ccccc1` (stereo not drawn), the “growth rescue (activation)” value was inactive: 31.8%. For `COC(=O)[C@H](C)NC(=O)c1cc2c(cn1)[nH]c1ccccc12` the value was inactive: -22.4%; for `Cc1noc(C)c1C(=O)N1CCC1(C)C(=O)NS(=O)(=O)c1ccc(Cl)cc1` (stereo not drawn), inactive: -8.92%; for `O=C(Nc1ccc(N2CCN(C(=O)c3cccs3)CC2)cc1)c1cccc(F)c1`, inactive: -0.0565%. For `c1cc(-c2ccc(N3CCOCC3)cc2)n2ccnc2c1` the value was inactive: -10.7%; for `Cc1cc(F)ccc1Nc1nc2ccccc2n2nnnc12`, inactive: 10.8%; for `CC(=O)N1CCN(c2ccc(NS(=O)(=O)c3ccc(C)cc3)cc2)CC1`, inactive: 18.8%. Then `COc1ccc(C(=O)NNC(=O)c2ccc(S(=O)(=O)N3CCOCC3)cc2)cc1`, with inactive: 18.9%; and `COc1ccc(C(C(=O)NC2CCCCC2)N(C(=O)c2snc(C(N)=O)c2N)c2ccc(OC)cc2OC)cc1` (stereo not drawn), with inactive: 5.25%; and `CC(=O)Oc1ccc(NC(=O)Cc2ccccc2)c(C(=O)O)c1`, with inactive: -6.56%. Regarding `COc1ccc(-n2cnnc2SCC(=O)Nc2cccc([N+](=O)[O-])c2)cc1`, the “growth rescue (activation)” value is inactive: 3.71%. For `CCC(C(=O)Nc1ccc(N2CCOCC2)c(S(=O)(=O)Nc2ccccc2OC)c1)c1ccccc1` (stereo not drawn) the value was inactive: 3.92%; for `COc1ccc(N2CCN(C(=O)c3c(-c4c(F)cccc4Cl)noc3C)CC2)cc1`, inactive: 13.4%; for `COc1cccc(/C=N/Nc2nc(Nc3ccc([N+](=O)[O-])cc3)nc(N3CCCC3)n2)c1O`, inactive: 24.2%. Then `Cc1cccc(S(=O)(=O)NC(=O)C2(C)CCN2C(=O)Cc2ccc(-c3ccccc3)cc2)c1` (stereo not drawn), with inactive: 17.2%. Then `CCC(C)(C)NC(=O)CN(C(=O)CCC(=O)Nc1nccs1)c1ccc2c(c1)OCO2`, with inactive: -3.31%. For the compound `NC(=O)COC(=O)CC1CC2CCC1C2` (stereo not drawn), the “growth rescue (activation)” value was inactive: 3.41%. As to `Nc1nc(N)nc(-c2ccccn2)n1`, the “growth rescue (activation)” value is inactive: 6.95%. Then `O=C(NCc1ccncc1)C1Cc2c(-c3ccc(Cl)cc3)ccnc2O1` (stereo not drawn), with inactive: -1.77%. For the compound `CC(C)Oc1ccccc1/C=N/Nc1ccccc1[N+](=O)[O-]`, the “growth rescue (activation)” value is inactive: -9.17%. Turning to `Cc1ccc(C=NNC(=O)c2cc(-c3cccnc3)nc3ccccc23)o1`, the “growth rescue (activation)” value is inactive: -5.49%. Then `Cn1c(=O)[nH]c(=O)c2c1nc(N1CCCCCC1)n2CCSc1nc2ccccc2[nH]1`, with inactive: -1.07%; and `COc1cccc(CN2CC(C(=O)NCCCn3cccn3)CCC2=O)c1` (stereo not drawn), with inactive: -0.157%; and `CCc1ccc[n+](-c2[nH]c(=O)sc2/C=N/N=C(\N)[O-])c1`, with inactive: -4.4%. For `S=C1NCN(CCc2ccccc2)CN1` the value was inactive: -5.85%. For `CC(=O)NC(c1ccc(C)cc1)c1cc(Cl)c2cccnc2c1O` (stereo not drawn) the value was inactive: 27.3%; for `O=[N+]([O-])c1cc(S(=O)(=O)N2CCCC2)ccc1N/N=C/c1cccnc1`, inactive: 4.72%; for `Cc1cc(C(C)(C)C)ccc1OC(=O)C1=CC=CN2CCS(=O)(=O)N=C12`, inactive: 9.3%. Turning to `CS(=O)(=O)c1ccc2nc(NC(=O)c3cccc(NS(=O)(=O)c4ccc(F)c(F)c4)c3)sc2c1`, the “growth rescue (activation)” value was inactive: -9.16%. Turning to `CCOC(=O)c1c(C)n(-c2ccc(C)cc2)c2ccc(O)c(CN(C)C)c12`, the “growth rescue (activation)” value is inactive: 14.5%.

For `C=CCNC(=O)NC(=O)COC(=O)c1cccnc1SC`, the “growth rescue (activation)” value is inactive: -8.76%.

Take `COC(=O)c1ccc(/C=N/NC(=O)CC(=O)NCc2cccnc2)cc1`: the “growth rescue (activation)” value was inactive: -11.3%. For `O=C(CCS(=O)(=O)c1ccc(Br)cc1)Nc1ccccn1` the value was inactive: -2.01%; for `CCN(c1ccccc1)S(=O)(=O)c1cc(C(=O)Nc2ccccc2Cl)ccc1F`, inactive: -15.4%; for `CCc1ccc(N(C(=O)c2snc(C(N)=O)c2N)C(C(=O)NC2CCCC2)c2ccco2)cc1` (stereo not drawn), inactive: 12.6%. Then `COc1ccc(/C=N/NC(=O)Cc2cc(OC)c(OC)cc2[N+](=O)[O-])cc1`, with inactive: 9.63%; and `C#CCn1c(-c2ccccc2)ccc(C#N)c1=O`, with inactive: -0.135%; and `COc1cc(-c2cc(-c3ccc(O)cc3)nc(N)c2C#N)ccc1O`, with inactive: 9.38%. For `O=C(CCc1ccccc1)Nc1ccc(NC(=O)C2CCCCC2)nc1` the value was inactive: 0.976%; for `O=S(=O)(NCCc1cccs1)c1ccc(Br)cc1`, inactive: 27.4%; for `O=C1N/C(=C/c2ccc(Br)s2)C(=O)N1c1ccccc1`, inactive: 4.76%. Consider `COc1ccc(C(=O)C2CCCN(C(=O)c3cccnc3OC)C2)c(C)c1` (stereo not drawn), for which the “growth rescue (activation)” value was inactive: 6.97%. Then `Cc1ccc2c([N+](=O)[O-])cccc2n1`, with inactive: 6.15%; and `CSc1ccc(CN(C)CC(=O)Nc2ccccc2Br)cc1`, with inactive: 13.3%. For `O=C(CN1CCSC1=O)N1CCN(S(=O)(=O)c2ccc(F)cc2)CC1` the value was inactive: 0.179%; for `Fc1ccc(-c2nnn3c2nc(NCc2ccccc2)c2ccccc23)cc1`, inactive: 8.15%. For `CCn1nc(C)cc1C(=O)NC1CCCc2c1cnn2-c1cc(F)cc(F)c1` (stereo not drawn) the value was inactive: 25.3%.

Take `CC(=O)c1ccc(OCc2cc(C(=O)N(C)Cc3ccon3)no2)cc1`: the “growth rescue (activation)” value is inactive: 5.83%. For `NC(=O)c1ccccc1N(Cc1ccccc1)S(=O)(=O)c1ccccc1` the value was inactive: -6.98%; for `CN(C(=S)Nc1ccc(Oc2ccccc2)cc1)c1ccc(O)cc1`, inactive: 11.7%; for `Cc1ccc(OCC(=O)Nc2ccc(S(=O)(=O)Nc3ccccn3)cc2)c(C)c1`, inactive: -3.73%. Then `CCNc1c([N+](=O)[O-])c(=O)oc2ccccc12`, with inactive: 4.26%; and `C=CCN(CC=C)CCCOc1ccccc1C(=O)OC`, with inactive: -20%. For `N#C/C(=C\c1ccc(F)cc1)c1n[nH]c(Cn2cncn2)n1` the value was inactive: 5.74%; for `O=c1[nH]c(C2CCN(S(=O)(=O)Cc3ccccc3)CC2)nc2c1nnn2Cc1cccc(Cl)c1`, inactive: 6.59%. Consider `CC(C)NC(=O)c1ccc(Cl)cc1Cl`, for which the “growth rescue (activation)” value was inactive: 14.1%. Then `Cc1cc(N2CCN(C)CC2)nc2ccc(NC(=O)c3ccccc3F)cc12`, with inactive: 14.2%; and `CCOC(=O)N(C)c1c(CC)nc2c(OCc3ccc(OC(F)F)cc3)cccn12`, with inactive: 11.8%; and `CCN(CC)c1ccc(C2Nc3cccc4cccc(c34)N2)cc1`, with inactive: 3.72%. Then `CC(=NC(C)C)C1=C(O)C(C)OC1=O` (stereo not drawn), with inactive: -1.08%; and `CC(C)(C)CC(=O)Nc1nc(C(N)Cc2ccc(C(F)(F)F)cc2)cs1` (stereo not drawn), with inactive: -8.3%; and `O=C(CN1CCN(S(=O)(=O)c2ccc(Br)cc2)CC1)N/N=C/c1ccncc1`, with inactive: 25.7%.

The record behind these values is PubChem BioAssay AID1347073 (National Center for Advancing Translational Sciences (NCATS), 2019).
